Source: ChEMBL document CHEMBL5606460, “ASAP - DENV-2 NS2B-NS3 protease fluorescence single point” (2024)
Out of some 2,000 compounds screened, about 110 (5.5%) showed an effect of 50% or more. This is one part of the list.

Biological target: Genome polyprotein (dengue virus type 2) (UniProt P29990)
[1] = Thailand/16681/1984, Concentration 25.0 uM, Number of replicates 1.0

CC(C)Nc1nc2ccc(C(=O)Nc3ccc4cn[nH]c4n3)cc2[nH]1
inhibition (Thailand/16681/1984, Concentration 49.5 uM, Number of replicates 2.0, Standard deviation 1.2194724472482659 %): 2.16% | inhibition (Thailand/16681/1984, Concentration 99.01 uM, Number of replicates 2.0, Standard deviation 0.5103679897359988 %): 2.97% | inhibition (Thailand/16681/1984, Concentration 198.0 uM, Number of replicates 2.0, Standard deviation 1.336009242024161 %): 6.45%

O=Cc1ccc(N2CCC(C(=O)Nc3ccc(SC(F)(F)F)cc3)CC2)cc1
inhibition [1]: 11.4%

Nc1ccc(-c2ccc3c(c2)B(O)OC3)cn1
inhibition (Thailand/16681/1984, Concentration 49.5 uM, Number of replicates 2.0, Standard deviation 2.7620048716047796 %): 3.85% | inhibition (Thailand/16681/1984, Concentration 99.01 uM, Number of replicates 2.0, Standard deviation 2.6667361352307544 %): 4.32% | inhibition (Thailand/16681/1984, Concentration 198.0 uM, Number of replicates 2.0, Standard deviation 1.9389477268925173 %): 5.1%

CC(C)(C)N(Cc1ccsc1)C(=O)C1CCN(c2ccc(C=O)cc2)CC1
inhibition [1]: 15%

O=Cc1ccc(N2CCC(C(=O)N3CCN(C(=O)[C@@H]4COc5ccccc5O4)CC3)CC2)cc1
inhibition [1]: 12.9%

CCc1noc2ncc(S(=O)(=O)N3CCCN(c4ncccc4C(N)=O)CC3)cc12
inhibition (Thailand/16681/1984, Concentration 49.5 uM, Number of replicates 2.0, Standard deviation 1.8356788443215486 %): -2.47% | inhibition (Thailand/16681/1984, Concentration 99.01 uM, Number of replicates 2.0, Standard deviation 2.074466218905688 %): -1.93% | inhibition (Thailand/16681/1984, Concentration 198.0 uM, Number of replicates 2.0, Standard deviation 1.9609356323935294 %): -1.82%

O=Cc1ccc(N2CCC(C(=O)N(CCN3CCOCC3)Cc3ccco3)CC2)cc1
inhibition [1]: 13%

CNS(=O)(=O)NCCNC(=O)c1ccc(O)c(NC(=O)c2ccncc2F)c1C
inhibition (Thailand/16681/1984, Concentration 49.5 uM, Number of replicates 2.0, Standard deviation 1.0126660380939199 %): -5.48% | inhibition (Thailand/16681/1984, Concentration 99.01 uM, Number of replicates 2.0, Standard deviation 1.2028983676587508 %): -4.42% | inhibition (Thailand/16681/1984, Concentration 198.0 uM, Number of replicates 2.0, Standard deviation 0.3461371468355998 %): -1.96%

Cc1cc(O)c2cccc(Cl)c2n1
inhibition (Thailand/16681/1984, Concentration 49.95 uM, Number of replicates 2.0, Standard deviation 6.548831311735657 %): -4.97% | inhibition (Thailand/16681/1984, Concentration 99.9 uM, Number of replicates 2.0, Standard deviation 6.132588319345643 %): -2.66%

C[C@@H](c1cccc2ccccc12)N(C)C(=O)C1CCN(c2ccc(C=O)cc2)CC1
inhibition [1]: 15.1%

O=Cc1ccc(N2CCC(C(=O)NCc3cc(F)c(F)c(F)c3)CC2)cc1
inhibition [1]: 15%

CNC(=O)c1nc(C)c(C)c(N2CC[C@@H](NC(=O)c3[nH]cnc3C(C)(C)C)C2)n1
inhibition (Thailand/16681/1984, Concentration 49.5 uM, Number of replicates 2.0, Standard deviation 3.9729285049821863 %): -1.49% | inhibition (Thailand/16681/1984, Concentration 99.01 uM, Number of replicates 2.0, Standard deviation 2.6762452228980855 %): -0.037% | inhibition (Thailand/16681/1984, Concentration 198.0 uM, Number of replicates 2.0, Standard deviation 2.7559764814217207 %): 2.57%

Cc1cc(-n2nccc2NC(=O)[C@]2(c3ccc(F)cc3)CCCNC2)ncn1
inhibition (Thailand/16681/1984, Concentration 49.5 uM, Number of replicates 2.0, Standard deviation 3.3001363391540566 %): -3.84% | inhibition (Thailand/16681/1984, Concentration 99.01 uM, Number of replicates 2.0, Standard deviation 7.095417479243068 %): -3.91% | inhibition (Thailand/16681/1984, Concentration 198.0 uM, Number of replicates 2.0, Standard deviation 21.37060707909394 %): 10.1%

Cc1cc(C(=O)NC2CC2)c2cccc(Cl)c2n1
inhibition (Thailand/16681/1984, Concentration 49.95 uM, Number of replicates 2.0, Standard deviation 4.773629949719906 %): -7.48% | inhibition (Thailand/16681/1984, Concentration 99.9 uM, Number of replicates 2.0, Standard deviation 4.187928177193353 %): -6.74%

CSc1ncc(C#N)c(NC(=O)C2CCN(c3ccc(C=O)cc3)CC2)n1
inhibition [1]: 13%

O=Cc1ccc(N2CCC(C(=O)Nc3ccccc3OCC(F)(F)F)CC2)cc1
inhibition [1]: 13.4%

NCc1ccc(/C=C/C(=O)C(=O)N2CCOCC2)cc1
inhibition (Thailand/16681/1984, Concentration 49.5 uM, Number of replicates 2.0, Standard deviation 0.4887874545992688 %): 28.7% | inhibition (Thailand/16681/1984, Concentration 99.01 uM, Number of replicates 2.0, Standard deviation 0.17235835687354284 %): 48.5% | inhibition (Thailand/16681/1984, Concentration 198.0 uM, Number of replicates 2.0, Standard deviation 0.3206181572929207 %): 70.2%

COCCN(Cc1c(C)nn(C)c1C)C(=O)C1CCN(c2ccc(C=O)cc2)CC1
inhibition [1]: 11.9%

Cc1cc(CO)c2cccc(Cc3cccc(NC(=O)c4ccc(-c5ccccn5)s4)c3)c2n1
inhibition (Thailand/16681/1984, Concentration 49.95 uM, Number of replicates 2.0, Standard deviation 0.8654494459321714 %): -0.837% | inhibition (Thailand/16681/1984, Concentration 99.9 uM, Number of replicates 2.0, Standard deviation 0.5338092239407879 %): 2.89%

Cc1cccc(C(=O)Nc2cc(N)ccc2C)c1
inhibition (Thailand/16681/1984, Concentration 49.95 uM, Number of replicates 2.0, Standard deviation 6.360452558421487 %): -5.42% | inhibition (Thailand/16681/1984, Concentration 99.9 uM, Number of replicates 2.0, Standard deviation 7.5252738299451165 %): -5.57%

COc1ccc(S(=O)(=O)n2nc(OC(=O)c3cccc(-c4ccccc4Cl)c3)cc2N)cc1
inhibition (Thailand/16681/1984, Concentration 49.5 uM, Number of replicates 2.0, Standard deviation 1.4490153953002987 %): 18.8% | inhibition (Thailand/16681/1984, Concentration 99.01 uM, Number of replicates 2.0, Standard deviation 0.6098804079928887 %): 22.4% | inhibition (Thailand/16681/1984, Concentration 198.0 uM, Number of replicates 2.0, Standard deviation 5.725656788050292 %): 25.3%

O=Cc1ccc(N2CCC(C(=O)Nc3ccc(N4CCOCC4=O)cc3)CC2)cc1
inhibition [1]: 9.21%

CC(C)(C)OC(=O)[C@H]1CCCN1C(=O)C1CCN(c2ccc(C=O)cc2)CC1
inhibition [1]: 11.5%

CCN(CCOc1ccccc1C)C(=O)C1CCN(c2ccc(C=O)cc2)CC1
inhibition [1]: 14%
